Experimental data published in the supplement of paper PMC3334620.
In all, about 33,000 sequences were measured (“E-score (-0.5 to 0.5)”: median about -0.035, highest 2% from about 0.34 on). This is one part of the list.

Target: T1, Mot3 (UniProt P54785)
T1 sequence: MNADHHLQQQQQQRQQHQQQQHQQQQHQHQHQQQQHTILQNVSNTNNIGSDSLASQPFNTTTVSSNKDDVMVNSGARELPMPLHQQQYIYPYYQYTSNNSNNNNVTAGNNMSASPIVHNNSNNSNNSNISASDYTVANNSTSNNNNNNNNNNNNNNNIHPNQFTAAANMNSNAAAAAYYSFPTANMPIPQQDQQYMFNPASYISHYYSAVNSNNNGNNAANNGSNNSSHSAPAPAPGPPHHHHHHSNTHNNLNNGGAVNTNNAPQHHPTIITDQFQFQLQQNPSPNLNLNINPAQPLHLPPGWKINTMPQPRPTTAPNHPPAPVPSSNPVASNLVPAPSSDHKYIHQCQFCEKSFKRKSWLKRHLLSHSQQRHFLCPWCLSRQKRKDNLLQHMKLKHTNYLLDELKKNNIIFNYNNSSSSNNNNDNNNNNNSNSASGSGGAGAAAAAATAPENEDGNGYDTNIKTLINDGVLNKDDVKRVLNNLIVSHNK
Experiment: PBM E-score (8-mer binding enrichment) (E-score (-0.5 to 0.5)); higher = stronger / more preferred TF binding; most listed sequences are background and not binding sites
Conditions: protein concentration: 200 nM; construct: GST-full length
Summary of the method: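 Universal all-10-mer Agilent arrays, fresh or stripped once, were converted to double-stranded form by primer extension. GST-tagged yeast transcription factors from PURExpress in vitro transcription/translation, full-length or DNA-binding domain only, were applied at about 100-200 nM and detected with fluorescent anti-GST. After masliner normalisation, the Universal PBM Analysis Suite scored each ungapped eight-base word together with its reverse complement by E-score.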

Row | Sequence | PBM E-score
1 | AATTTGCC | 0.245
2 | CTTCGACC | -0.0959
3 | TATTCTCA | -0.00287
4 | AAATACGG | 0.126
5 | CAATGCCG | -0.0723
6 | GATTAGCC | -0.0635
7 | GAAGGCTC | 0.291
8 | CTGACGCA | -0.28
9 | CCACCGTA | -0.223
10 | AGGCTCTC | 0.18
11 | CCCTAGTC | -0.163
12 | CAGCACGG | -0.0516
13 | ACGAGTAG | 0.00341
14 | AACTTATA | 0.122
15 | ATCAGCGG | -0.307
16 | CTAAGAAC | 0.00066
17 | TCTTCGAA | -0.0401
18 | CACATGAA | 0.185
19 | ATAAGAAC | 0.0775
20 | ATCCCACC | -0.0974
21 | CGCATTTA | 0.0598
22 | CCCAGAGG | -0.301
23 | AGACCGCC | -0.0853
24 | CCCGGACG | -0.269
25 | ATCACCAA | -0.167

Row | Sequence | PBM E-score
26 | ATATCCCG | -0.125
27 | ATCCGAAG | -0.199
28 | AGGCGCAA | 0.136
29 | TTCCGCAA | -0.236
30 | CTTATTGC | -0.0605
31 | AAGTATGT | 0.18
32 | CAGGCGCA | 0.299
33 | AGAACGTG | 0.146
34 | AATAACAT | 0.349
35 | AACTTCGA | 0.0212
36 | CTCAGATA | -0.0831
37 | TAGGGTCA | -0.0851
38 | ACATCGAC | 0.00335
39 | AATTTACT | 0.174
40 | CAACCTTG | 0.128
41 | CGGTGGGC | -0.107
42 | AGCAGTGC | -0.105
43 | TAGGCGGA | -0.0561
44 | TTGCGCAA | 0.015
45 | GTAACATA | 0.26
46 | GTTTGCTA | 0.0249
47 | CCACTATC | -0.259
48 | TTAACGAA | 0.128
49 | GAACTTAA | 0.0502
50 | CTTCCGCC | -0.22

Row | Sequence | PBM E-score
51 | ATCATTGA | 0.0882
52 | ATGAGAGC | -0.0809
53 | GTATGACA | 0.144
54 | GGTTCCGA | -0.286
55 | GAACCCTC | -0.176
56 | CATAGTAC | 0.0345
57 | GTACCCAC | 0.0626
58 | CGAACTAG | -0.0758
59 | CGTCTATC | -0.00811
60 | CAGTTTCA | -0.0919
61 | CTTGTAGA | 0.215
62 | GCGAACTA | -0.0334
63 | ACCATCAC | -0.0576
64 | CGACCGGC | -0.233
65 | GGGTACAA | -0.012
66 | CGGCAAAG | -0.226
67 | ACGTTTCA | 0.192
68 | AGCATTGC | -0.111
69 | AACGGAGG | -0.0591
70 | AGACGTGC | 0.0368
71 | GCGTAAGA | 0.253
72 | AGCCTGTA | 0.342
73 | AACTCTGT | -0.126
74 | CGCCTACC | 0.0721
75 | GACTACCC | -0.199

Row | Sequence | PBM E-score
76 | AATAGGCG | 0.215
77 | AAAATCCA | 0.0654
78 | AGCATAAG | 0.0413
79 | ACTTGATC | -0.103
80 | GGACGTTA | 0.19
81 | GTCCTACA | 0.0423
82 | AATCTGTA | 0.124
83 | ATCACATC | -0.0185
84 | AGTAATCG | 0.184
85 | AACTAGCA | -0.0161
86 | GTTGGTCA | 0.0627
87 | ACATCCTG | 0.183
88 | AAACATCT | 0.105
89 | GGTATCCA | -0.0998
90 | GCGTTCCC | -0.134
91 | AGATCTGC | 0.116
92 | AGACTGCT | -0.289
93 | AACCATGT | 0.299
94 | GCAACACA | 0.203
95 | ACCGAATG | 0.00173
96 | GAGAGGGC | -0.329
97 | ACCTCTGA | -0.206
98 | AGTCTAAC | -0.126
99 | AAACGCCG | 0.0313
100 | ATCACCAT | 0.108

Row | Sequence | PBM E-score
101 | AACAATAA | 0.204
102 | CCGTCAAG | -0.0863
103 | CAACGGGG | -0.149
104 | ATTCACCG | -0.125
105 | GTATCGAC | -0.0352
106 | CATTTAAC | 0.28
107 | CTCGCCAC | -0.196
108 | CCCAAGGA | -0.0628
109 | ATCCATAA | -0.166
110 | GATGCATC | 0.0564
111 | AGCATTCA | -0.221
112 | AAAGGCCC | 0.147
113 | ACATCAGA | -0.00156
114 | AGTGATTC | -0.113
115 | ACGGTAAT | -0.0828
116 | ATCTTGGG | -0.157
117 | CGAGATGA | -0.284
118 | CCCCTGGC | -0.327
119 | CAGTGAAG | 0.0639
120 | AACCTGGC | -0.00883
121 | ACTAATTC | 0.106
122 | CAAGGTGC | 0.0747
123 | GACTAATC | -0.182
124 | GTCCCAAC | -0.158
125 | GTAGAGTA | 0.163

Row | Sequence | PBM E-score
126 | GGTCACAA | -0.101
127 | AACTAGGA | 0.0811
128 | TAATGTCA | 0.139
129 | GAAGATAC | -0.078
130 | CCCACCCA | -0.263
131 | CTATTTGA | 0.0907
132 | AGAACTTC | -0.11
133 | AGTATTAT | 0.102
134 | AACTATGG | -0.0254
135 | GCTAGGCC | -0.374
136 | CCTGACGC | -0.225
137 | AAAGGTTG | -0.17
138 | CAAAAATG | 0.0761
139 | AGGACAGG | -0.0754
140 | AACGAACG | -0.0159
141 | CTTGTCTA | 0.064
142 | AAGGCTCC | 0.252
143 | CCGACCCC | -0.181
144 | CTCGTTAC | 0.0497
145 | TATGTCGA | 0.196
146 | CTCTGCGA | -0.116
147 | AAATACGT | 0.237
148 | CTTCTTGA | -0.0691
149 | CTTTACAA | 0.326
150 | AGATCCCA | -0.127

Row | Sequence | PBM E-score
151 | AGACGCTC | -0.394
152 | CTATCACC | -0.123
153 | GTTAACGA | 0.179
154 | CAGCTGGA | -0.104
155 | ACTGGACG | -0.17
156 | GCACTAAA | 0.188
157 | GGCGAATA | -0.0303
158 | ACCAGAGA | -0.178
159 | GGAGTCAA | -0.218
160 | AGATTGTC | -0.0677
161 | CGTTAGTA | 0.0806
162 | GATAACCA | -0.155
163 | CGGTCTAC | -0.0115
164 | AACAATCG | -0.0422
165 | GGCTGACC | -0.33
166 | ATAGGCGA | -0.00899
167 | AGGACATG | 0.0997
168 | TCGAGCAA | 0.158
169 | TCGGAGAA | -0.132
170 | CGACGAGC | -0.129
171 | ACTGGGGC | -0.203
172 | CCTTAAGC | 0.0192
173 | CACTGCTA | 0.0645
174 | ACGCGGGG | 0.0777
175 | ACAGTAAC | 0.11

Row | Sequence | PBM E-score
176 | GGCACGCA | 0.348
177 | CCCCTAGC | -0.266
178 | AGACCTAG | -0.154
179 | CAATCCTA | -0.125
180 | AGTCGGGG | -0.213
181 | AACTAGTG | -0.0349
182 | CGTCCGAG | -0.107
183 | AGGTATGC | 0.0371
184 | AAGGGCGC | 0.0329
185 | CCGGCCAC | -0.377
186 | ACTAAGTA | 0.109
187 | ATAGTGCG | -0.167
188 | AACACGGA | 0.252
189 | CATCTACC | -0.121
190 | GCAGGCGA | 0.123
191 | GACAGGTC | -0.152
192 | CGGACTTA | 0.00405
193 | CAGCGTTA | 0.00794
194 | TAAATAAA | 0.141
195 | GATAACGA | 0.11
196 | GACTCGCA | -0.245
197 | AGTCTGCA | -0.211
198 | AAGTCTGG | -0.00866
199 | ATCATATG | 0.0526
200 | CAGCAGCA | -0.117

Row | Sequence | PBM E-score
201 | CACAATGA | 0.05
202 | CAAAATTG | -0.0242
203 | CCCTCTAG | -0.0447
204 | ATGTAGAG | 0.252
205 | ATCCATCG | -0.2
206 | CCGATACA | -0.00192
207 | CCCTCTGC | -0.151
208 | AATCGGTC | -0.115
209 | CACAGTAG | 0.0475
210 | CCATCTTA | -0.172
211 | CGAGGGAG | -0.264
212 | ACTAGTTG | -0.109
213 | GTACAGAC | 0.125
214 | ATGCTGCG | -0.101
215 | AATGGCGG | -0.349
216 | CTCAAACC | -0.113
217 | ATAAAACA | 0.206
218 | ACCTCGTA | 0.0898
219 | CGCCACAC | -0.131
